# According to the supplement of paper PMC8728848:
# The other results are listed elsewhere or left out.
# Assays:
# Test in all cases: glycan array binding signal (z-score within array); higher = stronger binding
# Details in all cases: glycan notation: IUPAC condensed, linker removed
# [1] = biological target: Neu5Ac(a2-3)Gal(b1-4)GlcNAc(b1-2)[Neu5Ac(a2-3)Gal(b1-4)GlcNAc(b1-4)]Man(a1-3)[GlcNAc(b1-4)][Neu5Ac(a2-3)Gal(b1-4)GlcNAc(b1-4)Man(a1-6)]Man(b1-4)GlcNAc(b1-4)GlcNAc
# Summary of the method: (§1)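 Arrays were curated from the Consortium for Functional Glycomics database, 3228 in total, and kept only where the protein sequence was available. Binding is expressed as a within-array Z-score. This score was averaged across arrays of the same protein sequence at different concentrations or buffers and across linkers, and negative values can be read as non-binding.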
# [2] = biological target: Neu5Ac(a2-3)Gal(b1-4)GlcNAc(b1-2)[Neu5Ac(a2-3)Gal(b1-4)GlcNAc(b1-6)]Man(a1-6)[Neu5Ac(a2-3)Gal(b1-4)GlcNAc(b1-2)Man(a1-3)]Man(b1-4)GlcNAc(b1-4)GlcNAc
# Summary of the method: as §1
# [3] = biological target: Neu5Ac(a2-3)Gal(b1-4)GlcNAc(b1-2)[Neu5Ac(a2-3)Gal(b1-4)GlcNAc(b1-6)]Man(a1-6)[Neu5Ac(a2-3)Gal(b1-4)GlcNAc(b1-2)Man(a1-3)][GlcNAc(b1-4)]Man(b1-4)GlcNAc(b1-4)GlcNAc
# Summary of the method: as §1
# [4] = biological target: Neu5Ac(a2-3)Gal(b1-4)GlcNAc(b1-3)Gal
# Summary of the method: as §1
# [5] = biological target: Neu5Ac(a2-3)Gal(b1-4)GlcNAc(b1-3)Gal(b1-3)GlcNAc
# Summary of the method: as §1
# [6] = biological target: Neu5Ac(a2-3)Gal(b1-4)GlcNAc(b1-3)Gal(b1-4)GlcNAc
# Summary of the method: as §1
# [7] = biological target: Neu5Ac(a2-3)Gal(b1-4)GlcNAc(b1-3)Gal(b1-4)GlcNAc(b1-2)Man(a1-3)[Neu5Ac(a2-3)Gal(b1-4)GlcNAc(b1-3)Gal(b1-4)GlcNAc(b1-2)Man(a1-6)]Man(b1-4)GlcNAc(b1-4)GlcNAc
# Summary of the method: as §1
# [8] = biological target: Neu5Ac(a2-3)Gal(b1-4)GlcNAc(b1-3)Gal(b1-4)GlcNAc(b1-3)Gal(b1-4)GlcNAc
# Summary of the method: as §1
# [9] = biological target: Neu5Ac(a2-3)Gal(b1-4)GlcNAc(b1-3)Gal(b1-4)GlcNAc(b1-3)Gal(b1-4)GlcNAc(b1-2)Man(a1-3)[Neu5Ac(a2-3)Gal(b1-4)GlcNAc(b1-3)Gal(b1-4)GlcNAc(b1-3)Gal(b1-4)GlcNAc(b1-2)Man(a1-6)]GalNAc
# Summary of the method: as §1
# [10] = biological target: Neu5Ac(a2-3)Gal(b1-4)GlcNAc(b1-3)Gal(b1-4)GlcNAc(b1-3)GalNAc
# Summary of the method: as §1
# [11] = biological target: Neu5Ac(a2-3)Gal(b1-4)GlcNAc(b1-3)Gal(b1-4)GlcNAc(b1-3)[Neu5Ac(a2-3)Gal(b1-4)GlcNAc(b1-3)Gal(b1-4)GlcNAc(b1-6)]GalNAc
# Summary of the method: as §1
# [12] = biological target: Neu5Ac(a2-3)Gal(b1-4)GlcNAc(b1-3)Gal(b1-4)GlcNAc(b1-6)[Gal(b1-3)]GalNAc
# Summary of the method: as §1
# [13] = biological target: Neu5Ac(a2-3)Gal(b1-4)GlcNAc(b1-3)Gal(b1-4)[Fuc(a1-3)]GlcNAc
# Summary of the method: as §1
# [14] = biological target: Neu5Ac(a2-3)Gal(b1-4)GlcNAc(b1-3)GalNAc
# Summary of the method: as §1
# [15] = biological target: Neu5Ac(a2-3)Gal(b1-4)GlcNAc(b1-3)[Neu5Ac(a2-3)Gal(b1-4)GlcNAc(b1-6)]GalNAc
# Summary of the method: as §1
# [16] = biological target: Neu5Ac(a2-3)Gal(b1-4)GlcNAc(b1-6)GalNAc
# Summary of the method: as §1
# [17] = biological target: Neu5Ac(a2-3)Gal(b1-4)GlcNAc(b1-6)[Gal(b1-3)]GalNAc
# Summary of the method: as §1
# [18] = biological target: Neu5Ac(a2-3)Gal(b1-4)GlcNAc(b1-6)[Neu5Ac(a2-3)Gal(b1-3)]GalNAc
# Summary of the method: as §1
# [19] = biological target: Neu5Ac(a2-3)Gal(b1-4)GlcNAc6S
# Summary of the method: as §1
# [20] = biological target: Neu5Ac(a2-3)Gal(b1-4)[Fuc(a1-3)]GlcNAc
# Summary of the method: as §1
# [21] = biological target: Neu5Ac(a2-3)Gal(b1-4)[Fuc(a1-3)]GlcNAc(b1-2)Man
# Summary of the method: as §1
# [22] = biological target: Neu5Ac(a2-3)Gal(b1-4)[Fuc(a1-3)]GlcNAc(b1-3)Gal
# Summary of the method: as §1
# [23] = biological target: Neu5Ac(a2-3)Gal(b1-4)[Fuc(a1-3)]GlcNAc(b1-3)Gal(b1-4)GlcNAc
# Summary of the method: as §1
# [24] = biological target: Neu5Ac(a2-3)Gal(b1-4)[Fuc(a1-3)]GlcNAc(b1-3)Gal(b1-4)[Fuc(a1-3)]GlcNAc(b1-3)Gal(b1-4)[Fuc(a1-3)]GlcNAc
# Summary of the method: as §1
# [25] = biological target: Neu5Ac(a2-3)Gal(b1-4)[Fuc(a1-3)]GlcNAc(b1-3)GalNAc
# Summary of the method: as §1
# [26] = biological target: Neu5Ac(a2-3)Gal(b1-4)[Fuc(a1-3)]GlcNAc(b1-6)[Gal(b1-3)]GalNAc
# Summary of the method: as §1
# [27] = biological target: Neu5Ac(a2-3)Gal(b1-4)[Fuc(a1-3)]GlcNAc(b1-6)[Neu5Ac(a2-3)Gal(b1-3)]GalNAc
# Summary of the method: as §1
# [28] = biological target: Neu5Ac(a2-3)Gal(b1-4)[Fuc(a1-3)]GlcNAc6S
# Summary of the method: as §1
# [29] = biological target: Neu5Ac(a2-3)Gal6S(b1-4)GlcNAc
# Summary of the method: as §1
# [30] = biological target: Neu5Ac(a2-3)Gal6S(b1-4)[Fuc(a1-3)]GlcNAc
# Summary of the method: as §1
# [31] = biological target: Neu5Ac(a2-3)GalNAc
# Summary of the method: as §1
# [32] = biological target: Neu5Ac(a2-3)GalNAc(b1-4)GlcNAc
# Summary of the method: as §1
# [33] = biological target: Neu5Ac(a2-3)[GalNAc(b1-4)]Gal(b1-4)Glc
# Summary of the method: as §1
# [34] = biological target: Neu5Ac(a2-3)[GalNAc(b1-4)]Gal(b1-4)GlcNAc
# Summary of the method: as §1
# [35] = biological target: Neu5Ac(a2-3)[GalNAc(b1-4)]Gal(b1-4)GlcNAc(b1-3)GalNAc
# Summary of the method: as §1
# [36] = biological target: Neu5Ac(a2-3)[Neu5Ac(a2-6)]GalNAc
# Summary of the method: as §1
# [37] = biological target: Neu5Ac(a2-6)Gal
# Summary of the method: as §1
binder,measurement,setting,value
PV12658A-bvu-496-32-496 (Bacteroides vulgatus) (protein) DLDGAITTPAAVELALNGIYYSLPGNGFNVIFPTVSGSFKAGTMWRQEIVSAGNAVYYSERMLPTLSFSDATEWDADYAVIKNANFLETACNRMSDGEFSGNRRAEVLGEIAYLRALAYFNILVRYCEFWDMNSEYGVVMRNEAPSVSNALKARSSVADSYQYILDQLEIAIEKAPDWKKLSQASKEAAKALKARVLLYAGKYTEAVAAVNDAIDTNSPLPEANYGDVFDKFSTTKEILFARVFDQKDATNTSTRQQCYGNSPTKKQGYWGPTNEYVELVGDDPRADAIFSKVDSLMDSRSSAVAYNLKSVKKLLNDANDMPVIFSRVSELYLIKAEALYRSGASISEAYAPIRKLRERAGAEIILPANNEELETAIFNEWMLELSFENWHEWFAMIRFAGYTEKPDFTRLLALNKTLREALEKEYEKSEAQGDNYYQRIIDRRIDAIPSSEISSNLECKQNPGY,glycan array binding signal (z-score),[1],-0.362
same,glycan array binding signal (z-score),[2],-0.202
same,glycan array binding signal (z-score),[3],-0.314
same,glycan array binding signal (z-score),[4],0.014
same,glycan array binding signal (z-score),[5],-0.31
same,glycan array binding signal (z-score),[6],-0.069
same,glycan array binding signal (z-score),[7],0.962
same,glycan array binding signal (z-score),[8],-0.336
same,glycan array binding signal (z-score),[9],7.6
same,glycan array binding signal (z-score),[10],-0.414
same,glycan array binding signal (z-score),[11],0.145
same,glycan array binding signal (z-score),[12],-0.469
same,glycan array binding signal (z-score),[13],-0.353
same,glycan array binding signal (z-score),[14],0.325
same,glycan array binding signal (z-score),[15],-0.138
same,glycan array binding signal (z-score),[16],-0.479
same,glycan array binding signal (z-score),[17],-0.181
same,glycan array binding signal (z-score),[18],-0.419
same,glycan array binding signal (z-score),[19],-0.525
same,glycan array binding signal (z-score),[20],-0.451
same,glycan array binding signal (z-score),[21],-0.411
same,glycan array binding signal (z-score),[22],-0.38
same,glycan array binding signal (z-score),[23],0.097
same,glycan array binding signal (z-score),[24],-0.253
same,glycan array binding signal (z-score),[25],-0.158
same,glycan array binding signal (z-score),[26],4.21
same,glycan array binding signal (z-score),[27],-0.336
same,glycan array binding signal (z-score),[28],-0.488
same,glycan array binding signal (z-score),[29],-0.235
same,glycan array binding signal (z-score),[30],-0.586
same,glycan array binding signal (z-score),[31],0.038
same,glycan array binding signal (z-score),[32],-0.164
same,glycan array binding signal (z-score),[33],-0.122
same,glycan array binding signal (z-score),[34],-0.266
same,glycan array binding signal (z-score),[35],-0.198
same,glycan array binding signal (z-score),[36],-0.255
same,glycan array binding signal (z-score),[37],-0.372
